The other results are listed elsewhere or left out. The energies were worked out here from pooled read counts, against the library average; single values are noisy.
biological target: T1, Pho4 (S. cerevisiae) (UniProt P07270); assay: relative binding free energy (BET-seq); higher = weaker binding; settings: reference: library average
T1 sequence: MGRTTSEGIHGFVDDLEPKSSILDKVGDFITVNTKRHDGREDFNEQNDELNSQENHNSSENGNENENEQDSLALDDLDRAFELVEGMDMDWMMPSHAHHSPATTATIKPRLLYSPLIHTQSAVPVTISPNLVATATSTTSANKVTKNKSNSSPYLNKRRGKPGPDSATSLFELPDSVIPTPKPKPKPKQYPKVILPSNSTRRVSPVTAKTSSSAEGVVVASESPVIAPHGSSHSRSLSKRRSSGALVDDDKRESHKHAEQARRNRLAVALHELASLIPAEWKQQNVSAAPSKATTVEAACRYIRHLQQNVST

Sequence | relative binding free energy [kcal/mol]
ATAGACACGTGCGTTT | 0
CGGAGCACGTGGCGGA | -0.09
TTTAGCACGTGGTGTG | -0.14
CAAGGCACGTGGGTTG | -0.25
CTATTCACGTGAGGGT | 0.36
TGTGTCACGTGGGTGG | -0.04
GGGGTCACGTGAAGGC | 0.37
CTTAGCACGTGAGGGT | 0.1
TAAGTCACGTGACGGT | 0.16
TGTATCACGTGAGCGA | 0.37
GTATGCACGTGCGTGG | -0.1
TTTACCACGTGTGGTT | -0.05
GGTAGCACGTGTGAAG | 0
TGATTCACGTGAGTGA | 0.4
GACGGCACGTGGTTTA | -0.09
ACTAGCACGTGGTTGT | -0.04
TGGGGCACGTGGGTTG | -0.17
TGAGTCACGTGTAAAT | 0.29
TTTTTCACGTGGTGTG | 0.27
TTGAGCACGTGACGTA | 0.06

Sequence | relative binding free energy [kcal/mol]
AGTTGCACGTGGTATG | -0.08
TGAATCACGTGGTTTT | 0.19
GGTGTCACGTGAGAGG | 0.24
ACTTACACGTGTTGGT | 0.05
AGAGTCACGTGCGGTA | 0.11
GGATTCACGTGACGGA | 0.49
TCATTCACGTGTTGGA | 0.32
GTGGGCACGTGGATCT | -0.04
ATGATCACGTGAGCGT | 0.42
GTTGACACGTGGGGCG | -0.05
TCGTTCACGTGCTTTG | 0.19
TAGTACACGTGGGTGA | -0.07
ATCGTCACGTGCTTGT | 0.07
TCGTGCACGTGAGGAA | 0.3
ACTATCACGTGTTGTG | -0.01
AATAGCACGTGGGAAG | -0.05
TATGGCACGTGGTAGT | -0.14
GGAAGCACGTGGGCAT | -0.24
GGTAACACGTGTAGGA | 0.04
GTACGCACGTGTTGAT | 0.09

Sequence | relative binding free energy [kcal/mol]
AAAATCACGTGGTTTC | 0.31
TGTGTCACGTGTGGCC | 0.14
TGGAGCACGTGGCGCT | -0.18
TTAGACACGTGGATTA | -0.06
TGACACACGTGGTTGG | -0.12
ATGGACACGTGTTTTG | 0.04
TTTGTCACGTGGGTCA | -0.04
GATCTCACGTGTAGGG | 0.21
TTCGCCACGTGGTAGG | -0.12
AGGGGCACGTGCCTGA | -0.12
TGGTGCACGTGTGTGA | 0.06
TTTATCACGTGTGTTA | 0.15
GGTTTCACGTGGGGTT | 0.28
ATGTACACGTGGATGT | 0.1
AATTACACGTGGGGTG | -0.1
CGTTTCACGTGCGGGG | 0.2
CGGCGCACGTGTATGT | 0
ATTGTCACGTGGTCGG | -0.02

Reference: the BET-seq Pho4 binding data (Le et al. 2018)
